{"source": "ChEMBL document CHEMBL4888484", "about": "“Replenishing the malaria drug discovery pipeline: Screening and hit evaluation of the MMV Hit Generation Library 1 (HGL1) against asexual blood stage Plasmodium falciparum ,using a nano luciferase reporter read-out” (2022)", "note": "Among all 150,000 compounds or so, about 540 (0.36%) showed an effect of 50% or more. The list shows a part of the results."}
{"system": "Plasmodium falciparum", "test": "Primary screen in NF54 nanoGlo assay, in single point, at 2uM, 72h; a lower Z score goes with more inhibition", "format": "functional, Erythrocyte", "details": "timepoint 72 hour", "units": {"% Inhibition": "%"}}
{"compound": "CCC1(CC)NC(=O)N(CC(=O)N2CC(O)CC2c2ccccc2)C1=O", "note": "(centres undefined)", "% Inhibition": -7, "Z score": 1.07}
{"compound": "Cc1cccc(NC(=O)CCN2CCS(=O)(=O)CC2)c1C", "% Inhibition": -11, "Z score": 1.92}
{"compound": "CN(C(=O)CCS(C)(=O)=O)c1cc(Cl)cc(Cl)c1", "% Inhibition": -11, "Z score": 1.76}
{"compound": "Cc1nn(C)c(Cl)c1S(=O)(=O)N1CCC[C@H](C(=O)c2ccc3c(c2)OCO3)C1", "% Inhibition": -13, "Z score": 1.39}
{"compound": "O=C(c1nc2ccccc2[nH]1)N1CCc2[nH]c(-c3cccnc3)nc2C1", "% Inhibition": -10, "Z score": 0.9}
{"compound": "CCC(C)NC(=O)[C@H](Cc1c[nH]c2ccccc12)NC(=O)OCc1ccccc1", "note": "(some centres undefined)", "% Inhibition": -7, "Z score": 1.08}
{"compound": "CC[C@H]1[C@H](NC(=O)c2cccc(N3CCS(=O)(=O)CC3)c2)[C@H]2CCO[C@H]21", "% Inhibition": 3, "Z score": -0.47}
{"compound": "COc1ccc(Cn2c(C)cc(O)c([C@H](c3ccccn3)N3CCN(c4ccccc4)CC3)c2=O)cc1", "% Inhibition": -4, "Z score": 0.58}
{"compound": "CCC1C(c2ccc(C)cc2)CCN1C(=O)CNC", "note": "(centres undefined)", "% Inhibition": -2, "Z score": 0.17}
{"compound": "COc1ccc(CCC(=O)Nc2cc(-c3ccsc3)no2)cc1", "% Inhibition": -4, "Z score": 0.41}
{"compound": "CCCn1ncc(C(=O)NCc2csc(N3CCCC3)n2)c1C", "% Inhibition": -3, "Z score": 0.56}
{"compound": "O=C(c1cccc(-c2cnccn2)c1)N(Cc1cccnc1)C1CCCCC1", "% Inhibition": -5, "Z score": 0.88}
{"compound": "C[C@]1(C(=O)O)CCN(C(=O)c2ccc(-c3ccccc3F)o2)C1", "% Inhibition": -5, "Z score": 0.96}
{"compound": "COc1cccc(NC(=O)Cn2c(C)cc3nc4n(c(=O)c32)CCC4)c1", "% Inhibition": 0, "Z score": 0.01}
{"compound": "O=C(NCCN1CCN(C2Cc3ccccc3C2O)CC1)C1CCC1", "note": "(centres undefined)", "% Inhibition": -18, "Z score": 2.27}
{"compound": "CCC[C@@]1(C2CCN(C(=O)c3cccc(Cl)c3F)CC2)NC(=O)N(CCc2cccs2)C1=O", "% Inhibition": 6, "Z score": -0.7}
{"compound": "Cc1noc(-c2c(C)sc(C)c2S(=O)(=O)Nc2ccccc2Cl)c1C", "% Inhibition": -12, "Z score": 2.08}
{"compound": "NC(=O)CN1C(=O)[C@]2(CCN(c3ncnc4c3CCC4)C2)c2ccccc21", "% Inhibition": -6, "Z score": 0.74}
{"compound": "O=S(=O)(Cc1ccon1)N1CCN(Cc2nccs2)CC1", "% Inhibition": 2, "Z score": -0.32}
{"compound": "COCC[C@H]1CN(c2nccnc2C#N)CCO1", "% Inhibition": -10, "Z score": 1.93}
{"compound": "CN(C(=O)CCCOc1ccc(F)cc1)C1CCS(=O)(=O)CC1", "% Inhibition": -2, "Z score": 0.24}
{"compound": "CC(NC(C)C1CN(C(=O)OC(C)(C)C)C1)c1ccccc1Br", "note": "(centres undefined)", "% Inhibition": 34, "Z score": -0.72}
{"compound": "Cc1cc(C)cc(CN2CCN(C(=O)CCCn3cccn3)CC2=O)c1", "% Inhibition": -6, "Z score": 1.14}
{"compound": "COc1ccc(CCNC(=O)CN2C(=O)CCc3cc(Br)ccc32)cc1OC", "% Inhibition": -13, "Z score": 1.76}
{"compound": "C=CCOc1ccc([C@H]2CC(=O)Nc3c2c(C)nn3-c2nncc(-c3ccc(C)cc3)n2)cc1OC", "% Inhibition": 6, "Z score": -1.06}
{"compound": "Cc1ccc(/N=C(\\NCc2cccnc2)NC(=O)c2cccc(Cl)c2)cc1", "% Inhibition": -16, "Z score": 1.51}
{"compound": "Cn1ncnc1NC(=O)NCC1(C)CCCCCC1", "% Inhibition": -2, "Z score": 0.29}
{"compound": "CC1CCN(CCOc2nc(C(F)(F)F)ccc2C(N)=O)CC1", "% Inhibition": 7, "Z score": -1.41}
{"compound": "Cc1cc2n(n1)CCCN(C(=O)Nc1c(C)c(-c3ccccc3)nn1C)C2", "% Inhibition": 1, "Z score": -0.21}
{"compound": "O=C(C1CCOCC1)N1CCC(Cc2ccc(COc3cccnc3)cc2)CC1", "% Inhibition": -20, "Z score": 3.79}
{"compound": "C#Cc1cc(F)c(NCc2ncnn2C(C)(C)C)c(F)c1", "% Inhibition": -6, "Z score": 0.57}
{"compound": "Cn1cc(CN2CCC[C@H](n3cncn3)C2)c(C2CCCC2)n1", "% Inhibition": -9, "Z score": 1.77}
{"compound": "CCc1cc(CN(C)Cc2nnc(C3CC3)o2)on1", "% Inhibition": -12, "Z score": 2.31}
{"compound": "CCc1c(C)nn2c(c1C)c(-c1ccccc1)[n+]1c(C)c(CC)c(C)nc21", "% Inhibition": 53, "Z score": -10.21}
{"compound": "CCN(CCC(=O)Nc1c(Cl)cccc1Cl)C[C@H]1CCCO1", "% Inhibition": -4, "Z score": 0.54}
{"compound": "Cc1cc(CNC(=O)c2ccc(F)cc2)on1", "% Inhibition": -14, "Z score": 2.04}
{"compound": "COCc1nncn1C1CN(C(=O)Cc2cc(OC)cc(OC)c2)C1", "% Inhibition": 36, "Z score": -4.79}
{"compound": "CN(C[C@H]1CCOC1)C(=O)CCc1ccncc1", "% Inhibition": -11, "Z score": 1.76}
{"compound": "Cc1cc(C)c(CN2CCN(C(=O)c3nc[nH]n3)CC2)c(-n2cccn2)c1", "% Inhibition": -2, "Z score": 0.37}
{"compound": "O=C(Cn1ccc2ccccc21)N1C[C@H]2C[C@@H](C1)C1CCCC(=O)N1C2", "note": "(some centres undefined)", "% Inhibition": 5, "Z score": -0.82}
{"compound": "C#CCN(Cc1nnc(C2CC2)o1)CC(F)(F)F", "% Inhibition": -5, "Z score": 0.47}
{"compound": "CCCCN1C(=O)CC[C@@H]2CN(C(=O)c3ccc(COC)o3)CC[C@@H]21", "% Inhibition": -3, "Z score": 0.57}
{"compound": "CCc1nc(C)c(C(=O)N(C)C[C@H]2COc3ccccc3O2)o1", "% Inhibition": -7, "Z score": 0.78}
{"compound": "Cc1cc(Cl)c2oc(C(=O)N3CCN(C(=O)c4ccco4)CC3)c(C)c2c1", "% Inhibition": -11, "Z score": 2.16}
{"compound": "Cc1cccc(-n2ncc3c2CCC[C@@H]3NC(=O)c2ccnc(-n3cnnn3)c2)c1C", "% Inhibition": -31, "Z score": 3.27}
{"compound": "CN(C)Cc1ccc(NC(=O)c2cc(F)cc3c(=O)c4cc(F)ccc4[nH]c23)cc1", "% Inhibition": 77, "Z score": -11.59}
{"compound": "Cc1ccsc1[C@H]1CCN(C(=O)c2ccc(N)nc2)C[C@@H]1O", "% Inhibition": 4, "Z score": -0.79}
{"compound": "CC[C@@H](C(=O)Nc1ccc(C)c(Cl)c1)n1nc(-c2cccc(OC)c2)c2c(C)onc2c1=O", "% Inhibition": -13, "Z score": 2.4}
{"compound": "C=CCCS(=O)(=O)Nc1ccc(C(F)(F)F)nc1", "% Inhibition": -12, "Z score": 1.49}
{"compound": "CCOc1ccc(NC(=O)c2sc3ncnc(N4CCCCC4)c3c2C)cc1", "% Inhibition": -9, "Z score": 1.35}
{"compound": "N#Cc1cc(-n2cnnc2)ccc1N1CCCC1", "% Inhibition": -16, "Z score": 2.73}
{"compound": "Cc1ccc(N2C(=O)[C@@H]3C(c4cccnc4)=NO[C@@H]3C2=O)cc1", "% Inhibition": 7, "Z score": -0.94}
